About 120 (0.25%) of roughly 48,000 compounds were called active. Another 4% or so got no clear call; they are omitted. Calls come from the whole dose curve; as a rule, active = well fitted activation curve with a large enough effect; inconclusive = small, poorly fitted or top-dose-only effect, or another doubt; inactive = no such curve, though single readings can be large or run the other way. Some of the results follow.
Assay: Primary qHTS for Identification of Small Molecule Activators of Huntingtin-Antisense Promoter Activity; note: nearly all actives have a fitted effect of over 55% in size
Conditions: HEK293 HTT-AS promoter firefly luciferase reporter, 24 h; series mostly up to 57.5 µM; activity change, positive = activation: at the top concentration
In short: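 Firefly luciferase readout (Dual-Glo, 10 min RT) after 24 h, 37 °C compound exposure (final up to 57.5 uM) of HEK293 reporter cells cultured 24 h beforehand; PTC124 at 50 uM final as control inhibitor; activity scaled vehicle 0%, zero RLU -100%.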

Activity change, positive = activation, inactive:
CCCCC(CC)CNC(=O)CCCn1c(=O)[nH]c2ccsc2c1=O (centres undefined) -19.5%, COc1ccc(C)cc1Nc1nc(-c2cccc(Cl)c2)c2c(n1)-c1ccccc1OC2 -11.8%, COc1cc(-c2nc(Cn3nnc(C(=O)Nc4cc(C)cc(C)c4)c3C)c(C)o2)cc(OC)c1OC -34.8%, Cc1ccc(-c2nc(N3CCN(c4ccccc4Cl)CC3)c3ccccc3n2)cc1 -4.33%, CCOc1ccc(NC(=O)C(NC(=O)C2CCC(C)CC2)C(C)C)cc1 (centres undefined) -1.73%, CCOC(=O)c1cc(-c2ccccc2)n(CC(=O)N(C)c2ccc(OC)cc2)c1C -23.5%, C[C@](Cc1c[nH]c2ccccc12)(NC(=O)OC1C2CC3CC(C2)CC1C3)C(=O)NC[C@H](NC(=O)CCC(=O)O)c1ccccc1 (some centres undefined) -12.4%, CCS(=O)(=O)N1CC(=O)N(c2cccc(Cl)c2C)C(C)(C(=O)NC2CCCCC2)C1 (centres undefined) -10.3%, CCN(CCCNC(=O)c1cc2cc3ccc(C)cc3nc2s1)c1ccccc1 -17%, CCCN(c1ccccc1CC)S(=O)(=O)c1ccc2c(c1)CC(C)N2C(=O)C1CC1 (centres undefined) -58%, CCCc1c(OCCCCc2nn[nH]n2)ccc(C(C)=O)c1O -10.1%, COCCNC(=O)CCCN1C(=O)c2ccccc2Sc2ncccc21 -8.44%, Cc1ccc(NC(=O)c2oc3ccc(S(=O)(=O)N(C)C4CCCCC4)cc3c2C)cc1Cl -13.1%, O=S(=O)(c1cccc(F)c1)N1CCC(c2nc3ccccc3s2)CC1 12.1%, Cc1cc(C)cc(NS(=O)(=O)c2ccc3c(c2)NC(=O)C(C)S3)c1 (centres undefined) -28%, CCOC(=O)c1c(C)oc2nc(C)nc(Nc3ccc(CC)cc3)c12 -20.2%, CCn1c(C(=O)N2CCC(C(=O)NCCc3ccc(OC)cc3OC)CC2)cc2sccc21 -30.8%, Cc1c(C(=O)NCc2ccccc2Br)oc2c1-c1[nH]ncc1CC2 11.3%, CCN1CCN(c2c(S(=O)(=O)c3ccc(OC)cc3)cnc3cc(OC)c(OC)cc23)CC1 -10.3%, CCc1ccc(S(=O)(=O)c2nnn3c2nc(NC2CCCCCC2)c2sccc23)cc1 -14.3%, COc1cccc2c1Oc1ncccc1N(C(=O)Nc1ccc(F)c(Cl)c1)C2 -25%, CCOC(=O)C(CC)Sc1ccc2nnc(CCNS(=O)(=O)c3ccc(C)cc3)n2n1 (centres undefined) -6.76%, CCOCCCNC(=O)C1CCC(CNS(=O)(=O)c2ccc(NC(C)=O)cc2)CC1 (centres undefined) -2.15%, Cc1ccc(C)c(CN2C(=O)c3ccccc3S(=O)c3ccc(C(=O)NCc4ccccc4)cc32)c1 (centres undefined) -17.3%, COc1ccc(NC(=O)c2ccc(-c3nc(CSc4ccccc4)c(C)o3)cc2)cc1OC -23%, COc1ccccc1Cc1nc2ccccc2[nH]c1=O 3.23%, CCOC(=O)c1cc2c(=O)n3ccccc3nc2n(CCCOC)c1=NC(=O)C(C)Oc1ccccc1 (centres undefined) 4.82%, COc1ccc(CNC(=O)CN(c2ccccc2)S(=O)(=O)N(C)C)cc1 -2.44%, Cc1ccc(CNC(=O)c2ccc(Cn3c(SCc4ccccc4F)nc4cccnc43)cc2)cc1 -6.84%, CN(C)S(=O)(=O)c1ccc(C(=O)N2CC(=O)Nc3ccc(Br)cc3C2c2ccc(F)cc2)cc1 (centres undefined) -0.345%, CC1CCN(C(=O)Cn2c(=O)oc3cc(S(=O)(=O)N4CCCCC4)ccc32)CC1 -16.5%, CCOc1cc(CNc2ccc(O)cc2)ccc1OCc1ccc(Cl)cc1 6.51%, CCOc1ccc(CC(=O)NCCc2sc3nc(-c4ccc(OC)cc4)nn3c2C)cc1 -16%, CCN1CCN(c2c(S(=O)(=O)c3ccc(C)c(C)c3)cnc3cc(OC)c(OC)cc23)CC1 -18.9%, Cc1cccc(-n2c(=O)c3c4c(sc3n3cnnc23)CCCC4)c1 -2.53%, Cc1cc(C)cc(NC2=CC(c3cccc(F)c3)N(c3cc(C)cc(C)c3)C2=O)c1 (centres undefined) 5.26%, Cc1cc(=O)n(Cc2cccc(Cl)c2)c2c1c(C)nn2-c1ccccc1 -17.6%, CCN(CC)C(=O)c1sc2c(c1C)c(=O)n(-c1ccccc1)c(=O)n2CC(=O)Nc1ccc(C)cc1C -9.97%, CCCCSc1ncnc2c1c(-c1ccccc1)cn2-c1cccc(F)c1 -18.7%, CCN(CC)S(=O)(=O)c1nnc(NC(=O)COc2ccc(Cl)cc2)s1 -24.8%, CC(=O)Nc1cc(NC(C)=O)cc(-c2nc3ccccc3[nH]2)c1 -93.8%, CCOC(=O)Cn1cnc2onc(-c3ccc(F)cc3)c2c1=O -4.06%, COc1ccc(C(CNC(=O)COc2ccc(Cl)c(C)c2)N2CCOCC2)cc1 (centres undefined) -21.4%, CCC1CCCCN1CCCNC(=O)c1cc2c(Cl)nc3ccccc3c2s1 (centres undefined) -30.3%, COC(=O)c1ccccc1NC(=O)Cn1c(=O)n(Cc2ccc(C(=O)NCc3ccc4c(c3)OCO4)cc2)c(=O)c2ccccc21 -5.14%, CCOC(=O)c1c(C)oc2ncnc(Nc3ccc(OCC)cc3)c12 -5.96%, Cc1ccc(C)c(N2C(=O)N(Cc3cc(=O)n4ccccc4n3)c3ccccc3S2(=O)=O)c1 -38.2%, COc1cccc(C(=O)c2sc3nc(-c4ccccc4)cc(C(F)(F)F)c3c2N)c1 -17.8%, CCc1cccc(NC(=O)Nc2csc3c2CCCC3)c1 -13.4%, O=C(CN1C(=O)CCc2cc(S(=O)(=O)N3CCOCC3)ccc21)NCc1ccc(F)cc1 -14.5%, Cc1ccc(CNC(=O)c2ccc3c(c2)nc(C)n3-c2cc(C)cc(C)c2)cc1 -15%, COc1cccc(NC(=O)CNC(=O)Cn2c(C)cc3ccccc3c2=O)c1 -2.4%, Cc1ccc(N(CC(=O)NCCc2ccccc2)S(=O)(=O)N(C)C)cc1 -12.4%, Cn1ccc2cc(S(=O)(=O)N3CCC(C(=O)NCCc4ccccc4)CC3)ccc21 -11.3%, N#Cc1ccccc1NC(=O)Cn1cnc2onc(-c3cccc(F)c3)c2c1=O 4.63%, CCn1cc(C(=O)N2CCN(c3cccc(Cl)c3)CC2)c(=O)c2cc(S(=O)(=O)N3CCCCC3)ccc21 -7.87% [at 11.5 µM, percent change from vehicle, -100% = no light], COc1ccc(OC)c(NC(=O)Cn2c(=O)n(Cc3ccccc3)c(=O)c3ccccc32)c1 0%, COc1ccc(OC)c(NC(=O)N2CCN(S(=O)(=O)c3ccc4c(ccn4C)c3)CC2)c1 -22.6%, COc1ccc(C(CNC(=O)c2oc3ccc(C)cc3c2C)N2CCOCC2)cc1 (centres undefined) -8.55%, COc1cc(OC)cc(C(=O)Nc2ccc3nc(N4CCCCC4)cc(C)c3c2)c1 -10%, CCCn1c(-c2ccc(S(=O)(=O)N3CCOCC3)cc2)csc1=Nc1ccc(OCC)cc1 -25.9%, CC(C)Cn1c(=O)c2ccccc2n2c(CCC(=O)N3CCN(c4ccccc4F)CC3)nnc12 -2.77%, Cc1ccc2nc(-c3ccc(O)cc3)c(Nc3ccc4c(c3)OCCO4)n2c1 0.832%, CCCSCCCNC(=O)C1CCN(c2nn3cc(-c4ccc(F)cc4)nc3s2)CC1 1.09%, O=C(NCc1ccccc1Cl)C(=O)NCC(c1cccs1)S(=O)(=O)c1cccs1 (centres undefined) -37%, CN(C)C(=N)N=C(N)N, O=C(c1cc(-c2ccc(Br)cc2)n[nH]1)N1CCN(S(=O)(=O)c2ccc(Br)cc2)CC1 -29.1%, CCC(=O)N1N=C(c2ccc(OC)cc2)CC1c1cn(-c2ccccc2)nc1-c1cccs1 (centres undefined) -17.5%, CC(=O)N1c2ccc(S(=O)(=O)N3CCN(c4ccc(C)cc4C)CC3)cc2CC1C (centres undefined) -52.6%, O=C(Cn1ccn(-c2ccc(F)cc2)c(=O)c1=O)NCCc1ccccc1 -16.6%, CCOc1ccc(N(c2nc(-c3ccc(OC)c(OC)c3)no2)c2nc(-c3ccc(OC)c(OC)c3)no2)cc1 17%, CCOC(=O)c1cnc2ccc(C)cc2c1Nc1ccc(OCc2ccccc2Cl)cc1 -18.6%, COC(=O)CSc1nc2c(cnn2-c2ccc(F)cc2)c(=O)[nH]1 -0.821%, COc1ccc2oc(-c3ccc(C)c(NC(=O)c4cccnc4)c3)nc2c1 9.07%, COc1cc(OC)c(NC(=O)CSc2nccn2C)cc1Cl -5.02%, CC1CCN(c2oc(-c3cccs3)nc2S(=O)(=O)c2ccc(Cl)cc2)CC1 -19.4%, Cc1ccc(CNC(=O)c2ccc(-n3c(C)cc4c3CCCC4)cc2)cc1 -11.2%, Cc1ccc(OCC(=O)Nc2ccc3nc(SCC(=O)N4CCCC4)sc3c2)cc1 3.82%, O=C(CSc1nc2cc(C(=O)NC3CCCC3)ccc2c(=O)n1CC1CCCO1)c1ccc(F)cc1 (centres undefined) -0.935%, Cc1ccc(C)c(S(=O)(=O)c2cn(Cc3ccccc3)c3cc(F)c(F)cc3c2=O)c1 -6.49%, CNC(=O)c1ccc2c(c1)N=C(C)c1cc(C)ccc1S2 -23.6%, CCOC(=O)c1c(SCC(=O)Nc2nc3ccc(C)cc3s2)nc(=O)[nH]c1C -3.41%, Cc1cccc(CSc2cn(CC(=O)N3CCCCC3)c3ccccc23)c1 3.6%, Cc1cc(C)c2sc(N(Cc3cccnc3)C(=O)CCS(=O)(=O)c3ccccc3)nc2c1 -13%, CC(C)(C)C1CCc2oc3ccc(NS(=O)(=O)c4cc(Cl)ccc4Cl)cc3c2C1 (centres undefined) -18.8%, O=C(Cn1cc(SCc2cccc(F)c2)c2ccccc21)N1CCOCC1 24.9%, NC(=O)c1ncn([C@@H]2O[C@H](CO)[C@@H](O)[C@@H]2O)n1 -9.94%, CCOc1ccc(-n2c(=O)c3c(C)c(C)sc3n(CC(=O)c3ccccc3)c2=O)cc1 3.94%, CCN(CC)CCCNC(=O)c1c(C)oc2ncn(CC(C)C)c(=O)c12 -5.5%, CCc1ccc(-n2nc(C)c3c(C)cc(=O)n(CC(=O)Nc4ccc(C)c(F)c4)c32)cc1 6.3%, CCCCN(C)S(=O)(=O)c1cc(-c2nnc3c4ccccc4c(C)nn23)ccc1C 21.4%, CN(C)c1ccc(NC(=O)CCSc2nc(-c3ccco3)cc(C(F)(F)F)n2)cc1 -3.16%, COc1cccc(OC)c1-c1cc(C(=O)NC2(C(=O)O)C3CC4CC(C3)CC2C4)nn1-c1ccnc2cc(Cl)ccc12 (centres undefined) -7.94%, CC1CCc2c(sc(NC(=O)CCCOc3ccc(C(C)(C)C)cc3)c2C(N)=O)C1 (centres undefined) -16%
